This is an account of results in article PMC4222603, “Dual inhibition of HIV-1 replication by integrase-LEDGF allosteric inhibitors is predominant at the post-integration stage” (Retrovirology, 2013).

One assay has as its target T1, IN NL4-3 A128T (Human immunodeficiency virus type 1 group M subtype B, UniProt P12497, A1275T).
T1 construct: loaded on a Superdex 200 16/600 PG column (for full length IN); made in house
Details: species or system HIV-1. Conditions: pre-incubation with 100 μM compound.

The next assay deals with IN-CCD T174I (Human immunodeficiency virus type 1 group M subtype B, UniProt P12497, F1332K/T1321I). The following applies: SPR, 1.3 μM to 5.0 μM. In general terms: In SPR one partner is held on a chip, and binding of the other changes the refractive index at the surface.

Take `Cc1nc2c(c(-c3ccc4c(c3)CCCO4)c1C(OC(C)(C)C)C(=O)O)CCCC2` (centres unmarked) [Mut101, 2-(tert-butoxy)-2-[4-(3,4-dihydro-2H-1-benzopyran-6-yl)-2-methyl-5,6,7,8-tetrahydroquinolin-3-yl]acetic acid]: at IN NL4-3 A128T, the “Effect on IN A128T oligomerization state (SEC)” value is reported as “shift from IN dimer (blue peaks) toward IN tetramer”. Moreover, the “Binding to mutated IN-CCD T174I” value on IN-CCD T174I is “no significant binding”.
